Data from PubChem BioAssay AID330 (DTP/NCI, 2004).
Inconclusive results and toxic doses are left out. For part of its entries the source gives two or more results. The other results are left out here. The source may hold further records. Values given together repeat one measurement across runs, samples, wells, individuals or studies. A tag in brackets gives the origin of a value. The letters are not those of the source and start again with each entry.

Tested on: P388 leukemia ip, CD2F1 mice, survival T/C
Test: NCI In Vivo Anticancer Drug Screen. Data for tumor model P388 Leukemia (intraperitoneal) in CD2F1 (CDF1) mice
Settings: endpoint: median survival time, higher = longer survival
[1] = dose: 6.25 mg/kg/injection, schedule: Q01DX009 (ip), vehicle: saline

N#Cc1cn(C2OC(CO)C(O)C2O)c2ncnc(N)c12 (stereo not drawn)
T/C (dose: 0.3 mg/kg/injection, schedule: Q04DX003 (ip), vehicle: other): 95 % of control and 165 % of control

Nc1n[n+](-c2ccc(Cl)cc2)no1
T/C (dose: 50.0 mg/kg/injection, schedule: Q01DX009 (ip), vehicle: water): 88 % of control and 151 % of control

O=NNc1ccccn1
T/C (dose: 25.0 mg/kg/injection, schedule: Q01DX005 (ip), vehicle: water): 100 % of control and 156 % of control

CC[C@]1(O)C[C@H]2CN(CCc3c([nH]c4ccccc34)[C@@](C(=O)OC)(c3cc4c(cc3OC)N(C=O)[C@H]3[C@@](O)(C(=O)OC)[C@H](OC(C)=O)[C@]5(CC)C=CCN6CC[C@]43[C@@H]65)C2)C1
T/C (dose: 0.05 mg/kg/injection, schedule: Q01DX009 (ip), vehicle: saline): 111 % of control and 160 % of control
T/C (dose: 0.1 mg/kg/injection, schedule: Q01DX009 (ip), vehicle: saline): 119 % of control and 178 % of control
T/C (dose: 0.4 mg/kg/injection, schedule: Q04DX003 (ip), vehicle: water): 110 % of control, 165 % of control, 179 % of control
T/C (dose: 1.6 mg/kg/injection, schedule: Q04DX003 (ip), vehicle: water): 115 % of control and 184 % of control

C[N+](C)=c1ccc2nc3ccc(N)cc3sc-2c1
T/C (dose: 12.5 mg/kg/injection, schedule: Q01DX009 (ip), vehicle: saline with Tween-80): 93 % of control and 193 % of control

COc1cc2cc(c1Cl)N(C)C(=O)CC(OC(=O)C(C)NC(=O)C(C)C)C1(C)OC1C(C)C1CC(O)(NC(=O)O1)C(OC)/C=C/C=C(C)C2OC (stereo not drawn)
T/C (dose: 8.0 micrograms/kg/injection, schedule: Q01DX009 (ip), vehicle: distilled water + alcohol): 114 % of control and 159 % of control
T/C (dose: 16.0 micrograms/kg/injection, schedule: Q01DX009 (ip), vehicle: distilled water + alcohol): 117 % of control and 159 % of control

COc1cc(NS(C)(=O)=O)ccc1Nc1c2ccccc2nc2ccccc12
T/C (dose: 0.5 mg/kg/injection, schedule: Q01DX009 (ip), vehicle: other): 110 % of control and 150 % of control

Nc1ncn(C2OC(CO)C(O)C2O)c(=O)n1 (stereo not drawn)
T/C [1]: 175 % of control [sample A] and 87 % of control [sample B]
T/C (dose: 73.0 mg/kg/injection, schedule: Q01DX001 (ip), vehicle: saline): 99 % of control and 168 % of control

COc1cccc2c1C(=O)c1c(O)c3c(c(O)c1C2=O)C[C@@](O)(C(C)=O)C[C@@H]3OC1CC(N=CCCCC=NC2CC(O[C@H]3C[C@](O)(C(C)=O)Cc4c(O)c5c(c(O)c43)C(=O)c3c(OC)cccc3C5=O)OC(C)C2O)C(O)C(C)O1 (stereo partly drawn)
T/C (dose: 4.0 mg/kg/injection, schedule: Q04DX003 (ip), vehicle: distilled water + Tween-80): 115 % of control and 150 % of control
T/C (dose: 8.0 mg/kg/injection, schedule: Q04DX003 (ip), vehicle: distilled water + Tween-80): 123 % of control and 159 % of control

CC(=O)c1cc(C)oc1C
T/C (dose: 200.0 mg/kg/injection, schedule: Q01DX009 (ip), vehicle: saline): 106 % of control and 173 % of control

c1cc(-c2cc3ccc(C4=NCCN4)cc3[nH]2)ccc1C1=NCCN1
T/C (dose: 25.0 mg/kg/injection, schedule: Q04DX003 (ip), vehicle: saline): 124 % of control and 154 % of control
T/C (dose: 100.0 mg/kg/injection, schedule: Q04DX003 (ip), vehicle: saline): 96 % of control and 189 % of control

CC1=CC(=Nc2ccc(N(CCCl)CCCl)cc2)C=C(C)C1=O
T/C (dose: 6.25 mg/kg/injection, schedule: Q01DX009 (ip), vehicle: Klucel (hydroxypropylcellulose) (HPC)): 101 % of control and 157 % of control

CC[C@@]1(O)C[C@H]2CN(CCc3c([nH]c4ccccc34)[C@@](C(=O)OC)(c3cc4c(cc3OC)N[C@H]3[C@@](O)(C(=O)OC)[C@H](OC(C)=O)[C@]5(CC)C=CCN6CC[C@]43[C@@H]65)C2)C1
T/C (dose: 8.0 mg/kg/injection, schedule: Q01DX001 (ip), vehicle: water): 121 % of control and 150 % of control

CNC(=O)N(C)C(C)=O
T/C (dose: 400.0 mg/kg/injection, schedule: Q04DX003 (ip), vehicle: saline): 91 % of control and 177 % of control

C=C1C(=O)OC2C1CC(O)/C(C)=C\CCC1(C)OC21 (stereo not drawn)
T/C (dose: 80.0 mg/kg/injection, schedule: Q01DX009 (ip), vehicle: distilled water + Tween-80 + alcohol): 123 % of control and 150 % of control

O=C(O)[C@@H](NC(=O)C(Cl)(Cl)Cl)[C@@H]1CC(Br)=NO1
T/C (dose: 60.0 mg/kg/injection, schedule: Q01DX005 (ip), vehicle: distilled water + Tween-80): 115 % of control and 151 % of control

COc1cc2oc3c(C)c(=O)cc4oc(-c5ccccc5)cc(c2c2c1CCC(c1ccccc1)O2)c43 (stereo not drawn)
T/C (dose: 1.75 mg/kg/injection, schedule: Q01DX005 (ip), vehicle: Klucel (hydroxypropylcellulose) (HPC)): 98 % of control and 171 % of control
T/C (dose: 3.5 mg/kg/injection, schedule: Q01DX005 (ip), vehicle: Klucel (hydroxypropylcellulose) (HPC)): 92 % of control and 182 % of control

COc1cccc2c1C(=O)c1c(O)c3c(c(O)c1C2=O)CC(O)(C(=O)COc1ccccc1)CC3OC1CC(NC(=O)C(F)(F)F)C(O)C(C)O1 (stereo not drawn)
T/C (dose: 6.25 mg/kg/injection, schedule: Q01DX009 (ip), vehicle: other): 110 % of control and 157 % of control

Cc1nnc(C)s1
T/C (dose: 400.0 mg/kg/injection, schedule: Q01DX009 (ip), vehicle: Klucel (hydroxypropylcellulose) (HPC)): 104 % of control, 108 % of control, 151 % of control

C[NH-].C[NH-].[Cl][Pt+2][Cl]
T/C [1]: 113 % of control and 160 % of control

COc1cc2c[n+](C)c3c4cc5c(cc4ccc3c2cc1OC)OCO5
T/C (dose: 12.5 mg/kg/injection, schedule: Q01DX009 (ip), vehicle: water): 105 % of control and 150 % of control

CS(=O)(=O)OCC#CCOS(C)(=O)=O
T/C (dose: 25.0 mg/kg/injection, schedule: Q01DX009 (ip), vehicle: Klucel (hydroxypropylcellulose) (HPC)): 121 % of control and 172 % of control

CN(CC(N)=O)C(=O)N(CCCl)N=O
T/C (dose: 120.0 mg/kg/injection, schedule: Q01DX005 (ip), vehicle: saline with Tween-80): 117 % of control and 175 % of control

COc1cccc2c1C(=O)c1c(O)c3c(c(O)c1C2=O)C[C@@](O)(C(=O)COC(=O)Cc1ccccc1)C[C@@H]3OC1CC(N)C(O)C(C)O1 (stereo partly drawn)
T/C (dose: 4.0 mg/kg/injection, schedule: Q01DX009 (ip), vehicle: saline with Tween-80): 117 % of control and 166 % of control

CNC(=O)OCc1c(COC(=O)NC)c(-c2ccc(Cl)cc2)n(C)c1C
T/C (dose: 25.0 mg/kg/injection, schedule: Q01DX009 (ip), vehicle: distilled water + Tween-80): 88 % of control and 165 % of control
